Assay results as given in patent US9988430B2, “Stable GLP-1 based GLP-1/glucagon receptor co-agonists” (Novo Nordisk A/S, priority 2014, dated 2018).
At least one compound was matched to its structure with a doubt left. *1 amine or outer side, *2 acyl side, *3 side chain or, on linkers, in order; H or OH if unused. Where a SMILES comes first, the peptide text is derived from it. Bridges are numbered along the chain shown (N, C = ends). Roman numbers before positions name the chains, in order. Side-chain parts run from the residue outwards. [ ]: non-standard residue; d: D form. The star is where a group is joined. C18 diacid = O=C(O)CCCCCCCCCCCCCCCCC(=O)*; γGlu = O=C(O)[C@H](CCC(=O)[*:2])N[*:1]; Desaminohistidyl = O=C(CCc1c[nH]cn1)*; Ac4c = NC1(C(=O)O)CCC1; AEEA = NCCOCCOCC(=O)O; Aib = CC(C)(N)C(=O)O

Test: Assay (III): ThT fibrillation assay for physical stability
Assay type: physicochemical
Conditions: pH 7.5, 10 mM HEPES buffer, 37° C., shaking 960 rpm

Row | SMILES | ThT assay pH 7.5: Lag time [h]
1 | CC[C@H](C)[C@H](NC(=O)[C@H](Cc1ccccc1)NC(=O)[C@H](CCC(=O)O)NC(=O)[C@H](CCCNC(=N)N)NC(=O)[C@H](C)NC(=O)[C@H](C)NC(=O)[C@H](CCC(N)=O)NC(=O)[C@H](CCC(=O)O)NC(=O)[C@H](CCC(=O)O)NC(=O)[C@H](CC(C)C)NC(=O)[C@H](Cc1ccc(O)cc1)NC(=O)[C@H](CCCCN)NC(=O)[C@H](CO)NC(=O)[C@@H](NC(=O)[C@H](CC(=O)O)NC(=O)[C@H](CO)NC(=O)[C@@H](NC(=O)[C@H](Cc1ccccc1)NC(=O)[C@@H](NC(=O)CNC(=O)[C@H](Cc1c[nH]cn1)NC(=O)C1(NC(=O)CCc2c[nH]cn2)CCC1)[C@@H](C)O)[C@@H](C)O)C(C)C)C(=O)N[C@@H](C)C(=O)N[C@@H](Cc1c[nH]c2ccccc12)C(=O)N[C@@H](CC(C)C)C(=O)N[C@@H](CC(C)C)C(=O)N[C@@H](CCCCN)C(=O)N[C@@H](CCCCNC(=O)CNC(=O)[C@H](CO)NC(=O)[C@H](CCC(=O)O)NC(=O)CNC(=O)[C@H](CO)NC(=O)CC[C@H](NC(=O)CC[C@H](NC(=O)CCCCCCCCCCCCCCCCC(=O)O)C(=O)O)C(=O)O)C(N)=O [Example 2, N^ε35-[2-[[(2S)-2-[[(2S)-4-carboxy-2-[[2-[[(2S)-2-[[(4S)-4-carboxy-4-[[(4S)-4-carboxy-4-(17-carboxyheptadecanoylamino)butanoyl]amino]butanoyl]amino]-3-hydroxypropanoyl]amino]acetyl]amino]butanoyl]amino]-3-hydroxypropanoyl]amino]acetyl]-[Imp7,Acb8,His9,Lys18,Glu22,Arg26,Leu33,Lys35]-GLP-1-(7-35)-peptide amide] (I: Desaminohistidyl-[Ac4c]HGTFTSDVSKYLEEQAAREFIAWLLKK-NH2 / II: {C18 diacid-γGlu-γGlu}-SGESG; amide I:28-II:C) | 45.0
2 | CC[C@H](C)[C@H](NC(=O)[C@H](Cc1ccccc1)NC(=O)[C@H](CCC(=O)O)NC(=O)[C@H](CCCNC(=N)N)NC(=O)[C@H](C)NC(=O)[C@H](C)NC(=O)[C@H](CCCNC(=N)N)NC(=O)CNC(=O)[C@H](CCC(=O)O)NC(=O)[C@H](CC(C)C)NC(=O)[C@H](Cc1ccc(O)cc1)NC(=O)[C@H](CCCNC(=N)N)NC(=O)[C@H](CO)NC(=O)[C@@H](NC(=O)[C@H](CC(=O)O)NC(=O)[C@H](CO)NC(=O)[C@@H](NC(=O)[C@H](Cc1ccccc1)NC(=O)[C@@H](NC(=O)CNC(=O)[C@H](Cc1c[nH]cn1)NC(=O)[C@H](C)NC(=O)CCc1c[nH]cn1)[C@@H](C)O)[C@@H](C)O)C(C)C)C(=O)N[C@@H](C)C(=O)N[C@@H](Cc1c[nH]c2ccccc12)C(=O)N[C@@H](CC(C)C)C(=O)N[C@@H](CC(C)C)C(=O)N[C@@H](CCCCNC(=O)COCCOCCNC(=O)COCCOCCNC(=O)CC[C@H](NC(=O)CC[C@H](NC(=O)CC[C@H](NC(=O)CCCCCCCCCCCCCCCCC(=O)O)C(=O)O)C(=O)O)C(=O)O)C(=O)O [Example 17, N^ε34-[2-[2-[2-[[2-[2-[2-[[(4S)-4-carboxy-4-[[(4S)-4-carboxy-4-[[(4S)-4-carboxy-4-(17-carboxyheptadecanoylamino)butanoyl]amino]butanoyl]amino]butanoyl]amino]ethoxy]ethoxy]acetyl]amino]ethoxy]ethoxy]acetyl]-[Imp7,His9,Arg18,Arg23,Arg26,Leu33]-GLP-1-(7-34)-peptide] (Desaminohistidyl-AHGTFTSDVSRYLEGRAAREFIAWLLK([AEEA-AEEA-γGlu-γGlu-γGlu-C18 diacid])-OH) | 0.0
3 | CC[C@H](C)[C@H](NC(=O)[C@H](Cc1ccccc1)NC(=O)[C@H](CCC(=O)O)NC(=O)[C@H](CCCNC(=N)N)NC(=O)[C@H](C)NC(=O)[C@H](C)NC(=O)[C@H](CCC(N)=O)NC(=O)[C@H](CCC(=O)O)NC(=O)[C@H](CCC(=O)O)NC(=O)[C@H](CC(C)C)NC(=O)[C@H](Cc1ccc(O)cc1)NC(=O)[C@H](CCCCN)NC(=O)[C@H](CO)NC(=O)[C@@H](NC(=O)[C@H](CC(=O)O)NC(=O)[C@H](CO)NC(=O)[C@@H](NC(=O)[C@H](Cc1ccccc1)NC(=O)[C@@H](NC(=O)CNC(=O)[C@H](Cc1c[nH]cn1)NC(=O)C(C)(C)NC(=O)CCc1c[nH]cn1)[C@@H](C)O)[C@@H](C)O)C(C)C)C(=O)N[C@@H](C)C(=O)N[C@@H](Cc1c[nH]c2ccccc12)C(=O)N[C@@H](CC(C)C)C(=O)N[C@@H](CC(C)C)C(=O)N[C@@H](CCCCNC(=O)CNC(=O)[C@H](CO)NC(=O)CC[C@H](NC(=O)CC[C@H](NC(=O)CCCCCCCCCCCCCCCCC(=O)O)C(=O)O)C(=O)O)C(=O)N[C@H](C(N)=O)[C@@H](C)O [Example 4, N^ε34-[2-[[(2S)-2-[[(4S)-4-carboxy-4-[[(4S)-4-carboxy-4-(17-carboxyheptadecanoylamino)butanoyl]amino]butanoyl]amino]-3-hydroxypropanoyl]amino]acetyl]-[Imp7,Aib8,His9,Lys18,Glu22,Arg26,Leu33,Thr35]-GLP-1-(7-35)-peptide amide] (Desaminohistidyl-[Aib]HGTFTSDVSKYLEEQAAREFIAWLLK([Gly-Ser-γGlu-γGlu-C18 diacid])T-NH2) | 45.0
4 | CC[C@H](C)[C@H](NC(=O)[C@H](Cc1ccccc1)NC(=O)[C@H](CCC(=O)O)NC(=O)[C@H](CCCNC(=N)N)NC(=O)[C@H](C)NC(=O)[C@H](C)NC(=O)[C@H](CCCNC(=N)N)NC(=O)CNC(=O)[C@H](CCC(=O)O)NC(=O)[C@H](CC(C)C)NC(=O)[C@H](Cc1ccc(O)cc1)NC(=O)[C@H](CCCCN)NC(=O)[C@H](CO)NC(=O)[C@@H](NC(=O)[C@H](CC(=O)O)NC(=O)[C@H](CO)NC(=O)[C@@H](NC(=O)[C@H](Cc1ccccc1)NC(=O)[C@@H](NC(=O)CNC(=O)[C@H](Cc1c[nH]cn1)NC(=O)[C@H](C)NC(=O)CCc1c[nH]cn1)[C@@H](C)O)[C@@H](C)O)C(C)C)C(=O)N[C@@H](C)C(=O)N[C@@H](Cc1c[nH]c2ccccc12)C(=O)N[C@@H](CC(C)C)C(=O)N[C@@H](CC(C)C)C(=O)N[C@@H](CCCCNC(=O)COCCOCCNC(=O)COCCOCCNC(=O)CC[C@H](NC(=O)CC[C@H](NC(=O)CC[C@H](NC(=O)CCCCCCCCCCCCCCCCC(=O)O)C(=O)O)C(=O)O)C(=O)O)C(=O)N[C@H](C(N)=O)[C@@H](C)O [Example 10, N^ε34-[2-[2-[2-[[2-[2-[2-[[(4S)-4-carboxy-4-[[(4S)-4-carboxy-4-[[(4S)-4-carboxy-4-(17-carboxyheptadecanoylamino)butanoyl]amino]butanoyl]amino]butanoyl]amino]ethoxy]ethoxy]acetyl]amino]ethoxy]ethoxy]acetyl]-[Imp7,His9,Lys18,Arg23,Arg26,Leu33,Thr35]-GLP-1-(7-35)-peptide amide] (Desaminohistidyl-AHGTFTSDVSKYLEGRAAREFIAWLLK([AEEA-AEEA-γGlu-γGlu-γGlu-C18 diacid])T-NH2) | 45.0

Second part, the compound after the results:

Row | ThT assay pH 7.5: Lag time [h] | SMILES
5 | 45.0 | CC[C@H](C)[C@H](NC(=O)[C@H](Cc1ccccc1)NC(=O)[C@H](CCCCNC(=O)COCCOCCNC(=O)COCCOCCNC(=O)CC[C@H](NC(=O)CC[C@H](NC(=O)CC[C@H](NC(=O)CCCCCCCCCCCCCCCCC(=O)O)C(=O)O)C(=O)O)C(=O)O)NC(=O)[C@H](CCCNC(=N)N)NC(=O)[C@H](C)NC(=O)[C@H](C)NC(=O)[C@H](CCC(N)=O)NC(=O)[C@H](CCC(=O)O)NC(=O)[C@H](CCC(=O)O)NC(=O)[C@H](CC(C)C)NC(=O)[C@H](Cc1ccc(O)cc1)NC(=O)[C@H](CCCNC(=N)N)NC(=O)[C@H](CO)NC(=O)[C@@H](NC(=O)[C@H](CC(=O)O)NC(=O)[C@H](CO)NC(=O)[C@@H](NC(=O)[C@H](Cc1ccccc1)NC(=O)[C@@H](NC(=O)CNC(=O)[C@H](Cc1c[nH]cn1)NC(=O)[C@H](C)NC(=O)CCc1c[nH]cn1)[C@@H](C)O)[C@@H](C)O)C(C)C)C(=O)N[C@@H](C)C(=O)N[C@@H](Cc1c[nH]c2ccccc12)C(=O)N[C@@H](CC(C)C)C(=O)N[C@@H](CC(C)C)C(=O)N[C@@H](CCCNC(=N)N)C(=O)O [Example 18, N^ε27-[2-[2-[2-[[2-[2-[2-[[(4S)-4-carboxy-4-[[(4S)-4-carboxy-4-[[(4S)-4-carboxy-4-(17-carboxyheptadecanoylamino)butanoyl]amino]butanoyl]amino]butanoyl]amino]ethoxy]ethoxy]acetyl]amino]ethoxy]ethoxy]acetyl]-[Imp7,His9,Arg18,Glu22,Arg26,Lys27,Leu33,Arg34]-GLP-1-(7-34)-peptide] (Desaminohistidyl-AHGTFTSDVSRYLEEQAARK([AEEA-AEEA-γGlu-γGlu-γGlu-C18 diacid])FIAWLLR-OH)
6 | 11.7 | CC[C@H](C)[C@H](NC(=O)[C@H](Cc1ccccc1)NC(=O)[C@H](CCC(=O)O)NC(=O)[C@H](CCCNC(=N)N)NC(=O)[C@H](C)NC(=O)[C@H](C)NC(=O)[C@H](CCC(N)=O)NC(=O)[C@H](CCC(=O)O)NC(=O)[C@H](CCC(=O)O)NC(=O)[C@H](CC(C)C)NC(=O)[C@H](Cc1ccc(O)cc1)NC(=O)[C@H](CCCNC(=N)N)NC(=O)[C@H](CO)NC(=O)[C@H](Cc1ccc(O)cc1)NC(=O)[C@H](CC(=O)O)NC(=O)[C@H](CO)NC(=O)[C@@H](NC(=O)[C@H](Cc1ccccc1)NC(=O)[C@@H](NC(=O)CNC(=O)[C@H](Cc1c[nH]cn1)NC(=O)C1(NC(=O)CCc2c[nH]cn2)CCC1)[C@@H](C)O)[C@@H](C)O)C(=O)N[C@@H](C)C(=O)N[C@@H](Cc1c[nH]c2ccccc12)C(=O)N[C@@H](CC(C)C)C(=O)N[C@@H](CC(C)C)C(=O)N[C@@H](CCCNC(=N)N)C(=O)N[C@@H](CCCCNC(=O)CC[C@H](NC(=O)COCCOCCNC(=O)CC[C@H](NC(=O)COCCOCCNC(=O)CC[C@H](NC(=O)COCCOCCNC(=O)CC[C@H](NC(=O)CC[C@H](NC(=O)CCCCCCCCCCCCCCCCC(=O)O)C(=O)O)C(=O)O)C(=O)O)C(=O)O)C(=O)O)C(N)=O [Example 22, N^ε35-[(4S)-4-carboxy-4-[[2-[2-[2-[[(4S)-4-carboxy-4-[[2-[2-[2-[[(4S)-4-carboxy-4-[[2-[2-[2-[[(4S)-4-carboxy-4-[[(4S)-4-carboxy-4-(17-carboxyheptadecanoylamino)butanoyl]amino]butanoyl]amino]ethoxy]ethoxy]acetyl]amino]butanoyl]amino]ethoxy]ethoxy]acetyl]amino]butanoyl]amino]ethoxy]ethoxy]acetyl]amino]butanoyl]-[Imp7,Acb8,His9,Tyr16,Arg18,Glu22,Arg26,Leu33,Arg34,Lys35]-GLP-1-(7-35)-peptide amide] (Desaminohistidyl-[Ac4c]HGTFTSDYSRYLEEQAAREFIAWLLRK([γGlu-AEEA-γGlu-AEEA-γGlu-AEEA-γGlu-γGlu-C18 diacid])-NH2)
